# Data from the antibiotic and cytotoxicity screens of Wong et al. (2023).
# The list shows a part of the results.
# Key:
# [1] = system: HSkMC (human skeletal muscle cells); test: cytotoxicity call (relative viability < 0.9); settings: 10 µM
# [2] = system: HepG2; test: cytotoxicity call (relative viability < 0.9); settings: 10 µM
# [3] = system: S. aureus RN4220; test: growth inhibition call (relative growth <= 0.2); settings: 50 µM
Compound,cytotoxicity call [1],cytotoxicity call [2],growth inhibition call [3]
Cc1cc(C(=O)Nc2ccc3c(c2)C(=O)N(C)[C@@H]2CC[C@H](CC(=O)NCC(F)(F)F)O[C@@H]2CO3)no1,inactive,inactive,inactive
Cc1noc(C)c1S(=O)(=O)Nc1ccc2c(c1)C(=O)N([C@H](C)CO)C[C@@H](C)[C@H](CN(C)Cc1ccncc1)O2,inactive,inactive,inactive
C[C@@H]1CCCCO[C@@H](CN(C)C(=O)Nc2cccc3ccccc23)[C@H](C)CN([C@H](C)CO)C(=O)c2cc(NS(=O)(=O)c3ccc(F)cc3)ccc2O1,active,active,inactive
COc1ccc(NC(=O)Nc2ccc3c(c2)C(=O)N([C@@H](C)CO)C[C@H](C)[C@H](CN(C)Cc2ccc(C(F)(F)F)cc2)O3)cc1,inactive,inactive,inactive
C[C@@H]1CCCCO[C@H](CN(C)Cc2ccccc2)[C@H](C)CN([C@H](C)CO)C(=O)c2cc(NS(=O)(=O)c3ccc(F)cc3)ccc2O1,inactive,inactive,inactive
C[C@@H]1CCCCO[C@H](CN(C)C)[C@@H](C)CN([C@H](C)CO)C(=O)c2cc(NC(=O)Nc3cccc4ccccc34)ccc2O1,inactive,inactive,inactive
Cc1ccc(CSc2nnc(CCN)o2)cc1,inactive,active,inactive
C[C@H]1CCCCO[C@@H](CN(C)C(=O)C2CCCCC2)[C@@H](C)CN([C@@H](C)CO)C(=O)c2cc(NC(=O)Nc3ccc(F)cc3)ccc2O1,inactive,active,inactive
CC1(C)CC2C1CCC1(C)OC1CCC2(C)O (stereo not drawn),inactive,inactive,inactive
Cc1ccc(S(=O)(=O)Nc2ccc3c(c2)C(=O)N([C@@H](C)CO)C[C@H](C)[C@H](CN(C)S(=O)(=O)c2ccc(F)cc2)OCCCC[C@H](C)O3)cc1,inactive,inactive,inactive
Cc1noc(C)c1S(=O)(=O)Nc1ccc2c(c1)C(=O)N([C@H](C)CO)C[C@@H](C)[C@H](CN(C)S(=O)(=O)c1ccccc1)O2,inactive,inactive,inactive
O=C(C[C@H]1C=C[C@H](NC(=O)CN2CCOCC2)[C@@H](CO)O1)NC1CCCCC1,inactive,inactive,inactive
Nc1nnc(C2CC2)o1,inactive,inactive,inactive
C[C@H](CO)N1C[C@H](C)[C@@H](CN(C)C(=O)Nc2ccccc2)OCCCC[C@H](C)Oc2ccc(NC(=O)NC3CCCCC3)cc2C1=O,inactive,inactive,inactive
C[C@@H]1CN([C@@H](C)CO)C(=O)c2cc(NS(C)(=O)=O)ccc2O[C@H]1CN(C)Cc1ccc(C(F)(F)F)cc1,inactive,inactive,inactive
C[C@@H]1CCCCO[C@@H](CN(C)C(=O)C2CCCCC2)[C@H](C)CN([C@@H](C)CO)C(=O)c2cc(NC(=O)Nc3ccc(F)cc3)ccc2O1,inactive,inactive,inactive
C[C@@H]1CN([C@@H](C)CO)C(=O)c2cccc(NC(=O)CCCCCC(=O)Nc3ccccc3N)c2O[C@@H]1CN(C)Cc1ccccc1,inactive,inactive,inactive
N[C@H](Cc1cc(I)c(Oc2ccc(O)c(I)c2)c(I)c1)C(=O)O,inactive,inactive,inactive
COc1ccc(S(=O)(=O)Nc2ccc3c(c2)C(=O)N([C@H](C)CO)C[C@@H](C)[C@H](CN(C)CC2CC2)O3)cc1,inactive,inactive,inactive

Compound,cytotoxicity call [1],cytotoxicity call [2],growth inhibition call [3]
CCNC(=O)C[C@@H]1CC[C@H](NC(=O)C2CC2)[C@@H](CO)O1,inactive,inactive,inactive
C[C@@H]1CN([C@H](C)CO)C(=O)c2cc(NC(=O)Nc3ccccc3)ccc2O[C@@H](C)CCCCO[C@@H]1CN(C)Cc1ccc(C(F)(F)F)cc1,inactive,active,inactive
CCCNC(=O)N(C)C[C@@H]1Oc2cc(-c3ccccc3F)ccc2S(=O)(=O)N([C@H](C)CO)C[C@H]1C,inactive,inactive,inactive
C[C@H](CO)N1C[C@H](C)[C@H](CN(C)S(=O)(=O)c2cn(C)cn2)Oc2ncc(C3=CCCCC3)cc2C1=O,inactive,inactive,inactive
O=C(O)CCC(=O)NCc1cccnc1,inactive,inactive,inactive
Cc1ccc(S(=O)(=O)Nc2cccc3c2O[C@H](CN(C)Cc2ccc(Oc4ccccc4)cc2)[C@H](C)CN([C@H](C)CO)C3=O)cc1,inactive,inactive,inactive
Cc1ccnc(=O)[nH]1,inactive,inactive,inactive
CN(C)CCCNC(=O)C[C@@H]1CC[C@@H]2[C@H](COC[C@@H](O)CN2C(=O)Nc2cc(Cl)cc(Cl)c2)O1,inactive,inactive,inactive
C[C@@H]1CN([C@H](C)CO)C(=O)c2cccc(NC(=O)C3CCOCC3)c2O[C@H]1CN(C)S(=O)(=O)c1cccs1,inactive,inactive,inactive
Cc1noc(C)c1S(=O)(=O)N(C)C[C@H]1Oc2ccc(NC(=O)C3CC3)cc2CC(=O)N([C@H](C)CO)C[C@@H]1C,inactive,inactive,inactive
C[C@H](CO)N1C[C@H](C)[C@@H](CN(C)S(=O)(=O)c2ccc(Cl)cc2)Oc2c(NC(=O)C3CCOCC3)cccc2C1=O,inactive,inactive,inactive
Cc1ccc(S(=O)(=O)Nc2ccc3c(c2)C(=O)N([C@@H](C)CO)C[C@H](C)[C@@H](CN(C)C(=O)NC2CCCCC2)OCCCC[C@H](C)O3)cc1,inactive,active,inactive
CN(C)CC(=O)N1[C@@H]2Cn3c(cccc3=O)[C@H]1[C@@H](C(=O)NCc1ccccc1)[C@@H]2CO,inactive,inactive,inactive
CCOC(=O)c1cc2c(c(-c3ccccc3)n1)[C@@H](CCO[Si](C)(C)C(C)(C)C)N(S(=O)(=O)C(C)(C)C)C2,inactive,inactive,inactive
C[C@@H]1CN([C@H](C)CO)C(=O)c2cc(NC(=O)c3ccncc3)ccc2O[C@H]1CN(C)Cc1ccc(C(=O)O)cc1,inactive,inactive,inactive
CO[C@H]1CN(C)C(=O)c2cc(NC(=O)Nc3ccccc3)ccc2OC[C@H](C)N(C(=O)CN(C)C)C[C@H]1C,inactive,inactive,inactive
C[C@@H]1CN([C@@H](C)CO)C(=O)c2cccc(NS(=O)(=O)c3ccccc3)c2O[C@@H]1CN(C)Cc1ccc(-c2ccccc2)cc1,inactive,inactive,inactive
C[C@H](CO)N1C[C@H](C)[C@H](CN(C)C)Oc2ccc(NS(=O)(=O)c3cn(C)cn3)cc2CC1=O,inactive,inactive,inactive
CCc1nnc(NC(=O)c2nnc[nH]2)s1,inactive,inactive,inactive

Compound,cytotoxicity call [1],cytotoxicity call [2],growth inhibition call [3]
C[C@@H]1CN([C@H](C)CO)C(=O)c2c(c3ccccc3n2C)-c2ccccc2CO[C@H]1CN(C)Cc1ccc(C(F)(F)F)cc1,active,active,inactive
COc1ccc(NC(=O)Nc2ccc3c(c2)[C@@H]2C[C@@H](CC(=O)NCc4ccccn4)O[C@H](CO)[C@@H]2O3)cc1,inactive,inactive,inactive
O=C(C[C@@H]1CC[C@@H]2[C@H](COC[C@H](O)CN2S(=O)(=O)c2cccc(Cl)c2)O1)N1CCOCC1,inactive,inactive,inactive
C[C@H]1O[C@@H](OC[C@H]2O[C@@H](O[C@H]3CC[C@]4(C)[C@H]5CCC6=C(CC[C@@]7(C(=O)O[C@@H]8O[C@H](CO)[C@@H](O)[C@H](O)[C@H]8O[C@@H]8O[C@H](CO)[C@@H](O)[C@H](O)[C@H]8O)CCC(C)(C)C[C@@H]67)[C@]5(C)CC[C@H]4C3(C)C)[C@H](O)[C@@H](O)[C@@H]2O)[C@H](O)[C@@H](O)[C@@H]1O,inactive,inactive,inactive
C[C@@H]1CN([C@H](C)CO)C(=O)c2cc(NC(=O)Nc3cccc4ccccc34)ccc2O[C@@H](C)CCCCO[C@@H]1CN(C)Cc1ccc(C(=O)O)cc1,inactive,inactive,inactive
C[C@@H]1CN([C@@H](C)CO)C(=O)c2cc(C#CCN(C)C)cnc2O[C@H]1CN(C)C(=O)c1cnccn1,inactive,inactive,inactive
C[C@H](CO)N1C[C@H](C)[C@@H](CN(C)S(=O)(=O)c2cccs2)Oc2ccc(NC(=O)Cc3ccccc3)cc2C1=O,inactive,inactive,inactive
C#CC1(O)CCC2C3CCC4=CCCCC4C3CCC21C (stereo not drawn),active,active,inactive
Cc1cc(=O)[nH]c(=S)[nH]1,inactive,inactive,inactive
CN(C)CCCNC(=O)C[C@@H]1CC[C@@H]2[C@H](COC[C@H](O)CN2C(=O)c2cc(Cl)cc(Cl)c2)O1,inactive,inactive,inactive
C[C@@H]1CN([C@@H](C)CO)C(=O)CCCn2nncc2CO[C@@H]1CN(C)C(=O)Nc1cccc2ccccc12,inactive,inactive,inactive
C[C@H](CO)N1C[C@H](C)[C@@H](CN(C)C(=O)Nc2ccc(F)cc2)Oc2ccc(NC(=O)Nc3ccc(C(F)(F)F)cc3)cc2CC1=O,inactive,active,inactive
C[C@@H]1CN([C@H](C)CO)C(=O)Cc2cc(NS(C)(=O)=O)ccc2O[C@H]1CN(C)Cc1ccc2c(c1)OCO2,inactive,inactive,inactive
CC[C@@H](C)[C@@H](NC)C(=O)O,inactive,inactive,inactive
C[C@H]1CN([C@@H](C)CO)C(=O)CCCn2nncc2CO[C@@H]1CN(C)C(=O)Nc1ccc(C(F)(F)F)cc1,inactive,inactive,active
Cn1nnc2c(C(N)=O)ncn2c1=O,inactive,inactive,inactive
C[C@@H]1CCCCO[C@@H](CN(C)Cc2ccc3c(c2)OCO3)[C@H](C)CN([C@H](C)CO)C(=O)c2cc(NC(=O)Nc3ccc4c(c3)OCO4)ccc2O1,inactive,active,inactive
COCCNC(=O)C[C@@H]1C[C@H]2c3cc(NS(C)(=O)=O)ccc3O[C@H]2[C@@H](CO)O1,inactive,inactive,inactive
